Assay results as given in PubChem BioAssay AID1159614 (National Center for Advancing Translational Sciences (NCATS), 2016).
Out of some 45,000 compounds screened, about 65 (0.1%) were called active. Calls follow the shape of the dose curve; as a rule, active = well fitted activation curve with a large enough effect; inconclusive = small, poorly fitted or top-dose-only effect; inactive = no such curve, though single readings can be large or run the other way. The list shows a part of the results.

molecular target: Galactocerebrosidase (Homo sapiens) (UniProt P54803); assay: A Novel Cell-Based Assay to Identify Small Molecules for B -Galactocerebrosidase; details: 145M-Twi-hGALC-G270D cells (Twitcher mouse brain line with human GALC G270D), HMU-beta-Gal fluorescence, 48 h; series mostly up to 57.5 µM; activation: at the top concentration; also: 0% is about no effect; nearly all actives have a fitted effect of over 65% in size
Sequence of UniProt P54803 (P54803 whole entry, looked up): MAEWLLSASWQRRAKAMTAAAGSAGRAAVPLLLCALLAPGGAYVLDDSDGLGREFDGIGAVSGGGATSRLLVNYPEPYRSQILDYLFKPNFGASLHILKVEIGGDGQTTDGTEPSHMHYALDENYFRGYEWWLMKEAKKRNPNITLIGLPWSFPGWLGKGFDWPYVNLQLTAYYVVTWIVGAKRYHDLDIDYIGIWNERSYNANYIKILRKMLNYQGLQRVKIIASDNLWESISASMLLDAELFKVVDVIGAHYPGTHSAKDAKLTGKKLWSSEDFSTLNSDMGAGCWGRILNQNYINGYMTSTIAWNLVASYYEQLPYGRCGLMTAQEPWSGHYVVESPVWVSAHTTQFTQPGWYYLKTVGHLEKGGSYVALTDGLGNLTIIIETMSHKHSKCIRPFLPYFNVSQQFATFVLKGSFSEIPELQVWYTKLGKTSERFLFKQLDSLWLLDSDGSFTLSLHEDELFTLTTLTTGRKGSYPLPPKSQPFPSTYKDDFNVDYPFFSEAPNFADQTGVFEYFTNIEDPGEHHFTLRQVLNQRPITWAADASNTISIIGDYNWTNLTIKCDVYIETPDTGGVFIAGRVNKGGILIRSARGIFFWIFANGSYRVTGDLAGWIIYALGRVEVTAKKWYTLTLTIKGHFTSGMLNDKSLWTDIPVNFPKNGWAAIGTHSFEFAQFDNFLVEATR
Method in brief: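 Brain-derived Twitcher mouse 145M-Twi cells stably expressing human GALC-G270D or wild-type GALC, treated live, then residual GALC activity read by fluorescence of HMU-b-Gal substrate (0.1 mM final) in citrate-phosphate buffer pH 5.2 with sodium taurocholate. Signal increase indicates enhancement.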

SMILES | activation
COc1ccc(-c2c(C)c3ccc(O)c(CN4CCCC4)c3oc2=O)cc1 | inactive: -16.2%
CCn1c(SCC(=O)c2ccccc2)nnc1-c1cccc(Cl)c1 | inactive: -9.36%
CCc1c(CN2CCN(c3ccccc3F)CC2)csc1C | inactive: -11.1%
O=C(Cn1c(-c2cccs2)cc2cc(F)ccc21)NCCCN1CCN(c2ccc(F)cc2)CC1 | inactive: -11%
Cc1ccc(/C=C/c2onc(C)c2S(=O)(=O)N2CCC(C(=O)NCc3ccc(OC(C)C)cc3)CC2)cc1 | inactive: -8.66%
Cc1ccc(-c2nc(CS(=O)CC(=O)NCCc3ccc(Cl)cc3)c(C)o2)cc1 (stereo not drawn) | inactive: -13.6%
CC(CNC(=O)CCCn1c(=O)c2cccn2c2ccc(F)cc21)c1ccccc1 (stereo not drawn) | inactive: -11.9%
Cc1cccc(C(=O)NNc2ncnc3c2cnn3-c2ccc(C)c(Cl)c2)c1 | inactive: -22.5%
COc1cc(NC(=O)C2Cc3ccccc3N2C(=O)c2ccccc2)cc(OC)c1 (stereo not drawn) | inactive: -8.77%
O=C(O)CCC(=O)Nc1ccc(S(=O)(=O)Nc2nccs2)cc1 | inactive: -5.4%
COc1ccc(N2CCN(c3ncnc4c3nnn4C)CC2)cc1 | inactive: -1.22%
COC(=O)c1cc2sccc2n1CC(=O)Nc1cc(Cl)ccc1OC | inactive: -5.55%
COc1ccc(OCCn2nnc3sc4c(c3c2=O)CCCC4)cc1 | inactive: -13.2%
CCOc1ccc(-n2nc(CO)c(C(=O)NCC(C)O)n2)cc1 (stereo not drawn) | inactive: 1.99%
N#Cc1c(C(F)(F)F)cc(-c2cccs2)nc1SCc1ccccc1F | inactive: -12.1%
Clc1ccccc1CSc1nc(NCCc2ccccc2)c2ccccc2n1 | inactive: 2.08%
CCOc1ccccc1Oc1nc(C)nc2c1oc1ccccc12 | inactive: -15.4%
COc1cnc(NS(=O)(=O)c2ccc(N)cc2)nc1 | inactive: -9.7%
CCOC(=O)c1c(C)[nH]c(C)c1S(=O)(=O)NCC(=O)NCc1ccccc1C | inactive: -10.1%
CCOc1ccccc1CNS(=O)(=O)c1cc(-c2onc(C)c2C)ccc1OC | inactive: 2.59%
CCOC(=O)C1CCN(c2ncnc3c2c(-c2ccccc2)cn3-c2ccc(Cl)cc2)CC1 | inactive: -5.01%
CCC(=O)N1c2ccccc2CC1C(=O)N1CCN(c2ccccc2F)CC1 (stereo not drawn) | inactive: -12.9%
Cc1ccc(NC(=O)Cn2c(=O)n(CCCCC(=O)NCc3ccc4c(c3)OCO4)c(=O)c3ccccc32)cc1 | inactive: 11.7%
Cc1cccc(N2CCN(C(=O)c3ccc4c(c3)N(Cc3cccc(Cl)c3)C(=O)c3ccccc3S4(=O)=O)CC2)c1C | inactive: -9.19%
CCN(Cc1ccccc1)C(=O)Cn1ncc2c(=O)oc3ccc(C)cc3c21 | inactive: -17%
CCOc1ccc(NC(=O)CCc2nnc3n(C)c(=O)c4sccc4n23)cc1 | inactive: 4.08%
O=C(CSc1ncc2c(n1)-c1ccccc1N(Cc1ccc(Cl)cc1)S2(=O)=O)c1ccccc1 | inactive: -10.4%
O=C(O)CCn1c2c(c3ccccc31)C[C@H](NS(=O)(=O)c1ccc(F)cc1)CC2 | inactive: -25.1%
